In PubChem BioAssay AID1508624 (National Center for Advancing Translational Sciences (NCATS), 2021):
The whole screen tested about 48,000 compounds, of which about 120 (0.25%) were called active. Another 4% or so got no clear call; they are omitted. The call rests on the fitted dose curve; in most records, active means well fitted activation curve with a large enough effect; inconclusive means small, poorly fitted or top-dose-only effect, or another doubt; inactive means no such curve, though single readings can be large or run the other way. The list shows a part of the results.

assay: Primary qHTS for Identification of Small Molecule Activators of Huntingtin-Antisense Promoter Activity; settings: HEK293 HTT-AS promoter firefly luciferase reporter, 24 h; series mostly up to 57.5 µM; activity change, positive = activation: at the top concentration; further: nearly all actives have a fitted effect of over 55% in size
Method in brief: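 Luminescence was read after Dual-Glo reagent and a 10 min room-temperature incubation. Values were normalized to vehicle (0% activity) and zero RLU (-100% activity). Reporter HEK293 cells had been exposed to compounds (up to 57.5 uM final) for 24 h.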

Compound | activity change, positive = activation
O=C(NC(=O)c1cccc(F)c1)Nc1ccc(-c2cc(C(F)(F)F)nn2-c2ccccc2)cc1 | inactive: -19.6%
Cc1nc(-c2ccc(C)c(N3CCN(C(=O)Nc4ccccc4C(F)(F)F)CC3)c2)no1 | inactive: -21.8%
Cc1cc(C)cc(-n2cnc3cc(C(=O)NCCc4ccccc4)ccc32)c1 | inactive: 4.82%
CCOC(=O)c1c(Oc2ccc(C(=O)OC)cc2)nnc(-c2ccccc2)c1-c1ccccc1 | inactive: 0.27%
Cc1ccc(C)c(N(C)C(=O)c2cn(C)c(=O)c3ccccc23)c1 | inactive: -39.8%
COc1cc(NC(=O)Cn2c(SCc3ccc(F)cc3)nc3cccnc32)cc(OC)c1 | inactive: 2.83%
Cc1ccc(CCNC(=O)CCc2cn(Cc3ccccc3C)c3ccccc23)cc1 | inactive: -13.9%
O=C(CNC(=O)c1ccccc1Cl)OCc1cc(=O)n2ccsc2n1 | inactive: 9.14%
Cc1cccc(NC(=O)c2cc(S(=O)(=O)N3CCCCC3)c[nH]2)c1C | inactive: -18.2%
Brc1csc(CN2CCc3nc(Nc4ccccc4)ncc3C2)c1 | inactive: 4.2%
Cc1cccc(Cn2c(SCc3ccc(C(=O)N4CCCCCC4)cc3)nc3ccncc32)c1 | inactive: -30.2%
Cc1ccc(S(=O)(=O)N2CCC(Oc3ccc(-n4cnnn4)cc3)CC2)cc1 | inactive: -7.51%
COc1ccc(CC(=O)Nc2ccc3nc(Nc4cccc(Cl)c4)cc(C)c3c2)cc1OC | inactive: -40.8%
COc1ccccc1-n1cc(-c2ccc(C)cc2)nc1S(=O)(=O)CC(=O)Nc1ccccc1C(F)(F)F | inactive: 4.88%
COc1ccc(CNCCSc2nnnn2-c2ccccc2)cc1 | inactive: -17.4%
COc1ccc(CCNC(=O)c2ccc3c(c2)N(Cc2cccc(C)c2)C(=O)c2ccccc2S3(=O)=O)cc1OC | inactive: -18.7%
COc1ccccc1NC(=O)CSc1nnc(-c2cccc(Cl)c2)o1 | inactive: 15.7%
CCOc1ccccc1-c1nc(-c2ccc(-c3ccccc3)nc2OCC)no1 | inactive: -19.9%
CCn1cc(S(=O)(=O)c2cc(C)cc(C)c2)c(=O)c2cc(F)c(N3CCOCC3)cc21 | inactive: -15.2%
O=C(CCCN1CC=C(n2c(=O)[nH]c3ccccc32)CC1)c1ccc(F)cc1 | inactive: -4.93%
COc1ccccc1Nc1c2c(nc3ccc(NC(=O)/C=C/c4cccc(OC)c4OC)cc13)CCCC2 | inactive: -94.8%
Cc1ccc(Nc2c3c(nc4nncn24)CCC3)cc1 | inactive: -13.4%
COc1ccc2nc(N(Cc3cccnc3)C(=O)CCc3ccccc3)sc2c1 | inactive: -23.8%
COc1cc(OC)c(NC(c2nnc(-c3ccccc3)o2)c2ccc(F)cc2Cl)cc1Cl (stereo not given) | inactive: -23.4%

Compound | activity change, positive = activation
CCc1ccccc1NC(=O)Cn1nnc(C(=O)OC)c1C(=O)OC | inactive: -12.5%
CCN(CC)S(=O)(=O)c1ccc2c(c1)N(CC(=O)Nc1c(C)cccc1C)C(=O)CO2 | inactive: -11.5%
COc1ccc(OC)c(N(CC(=O)NCc2ccccc2)S(=O)(=O)c2ccccc2)c1 | inactive: 8.09%
COc1ccccc1CCNC(=O)c1ccc2c(c1)c(C)c(C)n2C | inactive: 6.03%
CCc1ccc(NCc2cc3cc4c(cc3n(CC(=O)Nc3ccc(Cl)cc3)c2=O)OCO4)cc1 | inactive: 0.0594%
COc1ccc(NC(=O)CSc2ncc(-c3ccc(Cl)cc3)[nH]2)cc1OC | inactive: -27.8%
Cc1cc(S(=O)(=O)Nc2cccc(C(=O)O)c2)c(C)c(S(=O)(=O)c2ccccc2)c1 | inactive: -16.8%
COC(=O)c1cc(NC(=O)CCc2c(C)nc3c4c(C)cc(C)nc4nn3c2C)cc(C(=O)OC)c1 | inactive: -10.9%
CCOC(=O)c1sc2ccccc2c1S(=O)(=O)Nc1ccc(N(C)C)cc1 | inactive: -40%
CCOC(=O)c1sc(N2C(=O)c3oc4cc(C)c(C)cc4c(=O)c3C2c2cccc(O)c2)nc1C (stereo not given) | inactive: -1.72%
Cc1ccc(Cn2c(=O)n(CCCCC(=O)NCCc3ccc(Cl)cc3)c(=O)c3ccccc32)cc1 | inactive: -36.8%
Cc1cc(C)cc(OCC(=O)NCC(c2ccc(Cl)cc2)N2CCCCC2)c1 (stereo not given) | inactive: -7.7%
CC1CCc2c(sc3nnn(Cc4ccc(F)cc4)c(=O)c23)C1 (stereo not given) | inactive: -22%
Cn1c(=O)c2c(n3c4ccccc4nc13)NC(=O)CC2c1ccccc1F (stereo not given) | inactive: 0%
CCc1nnc2c(Nc3ccc(Br)c(C)c3)nc3ccccc3n12 | inactive: 4.45%
COc1ccc(S(=O)(=O)N2CCN(c3ccc(F)cc3)CC2)cc1-c1noc(C)n1 | inactive: -25.5%
COc1cc(NC(=O)Cn2c(=O)n(Cc3ccccc3OC)c(=O)c3cccnc32)cc(OC)c1 | inactive: -36.6%
Cc1ccc(C(=O)COC(=O)c2cc(-c3ccccc3)nc3ccccc23)cc1C | inactive: -5.81%
Cc1ccc(C)c(N2CCN(S(=O)(=O)c3ccc4oc(=O)c5ncn(C)c5c4c3)CC2)c1 | inactive: -10.3%
COc1ccc(NC(=O)CCN2CCN(c3cccc(Cl)c3)CC2)cc1 | inactive: -13%
Cc1ccc(S(=O)(=O)c2nnn3c2nc(NCc2ccc(F)cc2)c2sccc23)cc1 | inactive: -11%
CCCNC(=O)c1ccc2c(c1)N(Cc1cccc(C)c1)C(=O)c1ccccc1S2 | inactive: -41.3%
CCc1ccccc1NC(=O)c1cc(S(=O)(=O)N(CC)c2ccccc2)ccc1F | inactive: -35.7%
COc1ccccc1NC(=O)CCCOc1cc(=O)n(C)c2ccccc12 | inactive: 22.5%

Compound | activity change, positive = activation
CC1CCN(c2nc3c(S(=O)(=O)c4ccccc4)nnn3c3ccsc23)CC1 | inactive: -13%
Oc1c(I)cc(I)c2cccnc12 | inactive: -4.33%
COc1ccc(-c2nc(C)c(CCNC(=O)C(=O)Nc3cccc(F)c3)s2)cc1OC | inactive: 16.9%
O=C(CC1N=C2c3ccccc3N=C(SCC(=O)Nc3cccc(C(F)(F)F)c3)N2C1=O)NCc1cccs1 (stereo not given) | inactive: -20%
COc1ccc(CCNC(=O)c2nn(-c3ccc(C)cc3)c(=O)c3c2c2ccccc2n3C)cc1OC | inactive: 1.7%
Cc1ccc(C)c(Cn2c(=O)n(Cc3ccccc3)c(=O)c3c(C)c(C)sc32)c1 | inactive: 7.97%
CCOC(=O)CCn1nc(-c2ccc(C)cc2)c2ccccc2c1=O | inactive: -5.61% [at 11.5 µM, percent change from vehicle, -100% = no light]
CCc1ccc(CN(Cc2ccco2)C(=O)c2ccccc2Cl)cc1 | inactive: -7.35%
CCn1cc(C(=O)O)c(=O)c2cnc(N3CCNCC3)nc21 | inactive: 4.36%
COc1ccc(NC(=O)CSc2nccn2Cc2ccc3c(c2)OCO3)cc1 | inactive: -11.2%
COc1ccc(C)cc1NC(=O)C(=O)NCC(c1cccnc1)N1CCc2ccccc21 (stereo not given) | inactive: -27.4%
Cc1ccc(-n2c3c(cc(C(=O)Nc4ccccc4C(N)=O)c2=O)C(=O)CC(C)(C)C3)cc1 | inactive: -22.5%
CN(C)CCNC(=O)CN1C(=O)COc2ccc(S(=O)(=O)N3CCCC3)cc21 | inactive: -3.66%
Cc1cc(C)c(NC(=O)CSc2ccc(-c3ccccn3)nn2)c(C)c1 | inactive: -7.44%
COc1ccc(C2=Nc3ccccc3NC(c3cccs3)=N2)cc1 | inactive: -4.36%
O=C1CC(c2ccccc2)Sc2ccccc2N1Cc1ccc(F)cc1 (stereo not given) | inactive: -39%
COc1cccc(CCNC(=O)c2c(O)nc3c(C)cccn3c2=O)c1 | inactive: -13.8%
CC(Sc1nnc2ccc3ccccc3n12)C(=O)Nc1ccc(Cl)cc1 (stereo not given) | inactive: 1.9%
COc1ccccc1NC(=O)Cn1c(SCC(=O)Nc2ccc(F)cc2)nc2ccccc21 | inactive: -9.85%
Cc1nc2ccn(Cc3ccccc3)c(=O)c2cc1C(=O)N1CCN(c2ccc(F)cc2)CC1 | inactive: -11%
NCCS(=O)(=O)O | inactive
COc1cc2nc(N3CCN(C(=O)c4ccco4)CC3)nc(N)c2cc1OC | inactive
COCCc1nn2c(=O)cc(COC(=O)C(c3ccccc3)c3ccccc3)nc2s1 | inactive: -14.7%
CCOC(=O)c1cnc2cc(-c3ccc(OCC)cc3)nn2c1-c1ccccc1 | inactive: -9.7%

Compound | activity change, positive = activation
CCCCS(=O)(=O)N[C@@H](Cc1ccc(OCCCCC2CCNCC2)cc1)C(=O)O | inactive: -4.58%
Cc1ccc(S(=O)(=O)N2CCN(C(=O)c3cc(-c4ccc(Br)cc4)n[nH]3)CC2)c(C)c1 | inactive: -39.6%
CCN(CC)c1ccc(NC(=O)c2cccn2-c2nnc(N3CCCCC3)s2)c(C)c1 | inactive: -29.7%
Cc1c(Cl)cccc1-n1ncc(C(=O)N2CCN(c3ncccn3)CC2)c1C1CCN(C(=O)OC(C)(C)C)CC1 | inactive: -0.9%
Cc1ccc(NC(=O)C(Cc2ccccc2)NS(=O)(=O)c2ccc3c(c2)c(=O)n(C)c(=O)n3C)c(C)c1 (stereo not given) | inactive: -10.8%
CCCOc1ccc(CNC(=O)CCCn2ncn3c(cc4sc(CC)cc43)c2=O)cc1 | inactive: -68%
COc1ccccc1CNC(=O)c1c[nH]c2ccc(S(=O)(=O)Nc3cc(C)cc(C)c3)cc2c1=O | inactive: -39.2%
CCNS(=O)(=O)c1ccc(NC(=O)CSc2nc(-c3ccco3)cc(C(F)(F)F)n2)cc1 | inactive: -42.5%
COc1cccc(NC(=O)CCC(=O)N2Cc3ccccc3Oc3ncccc32)c1 | inactive: -9.96%
Cc1ccc(CNC(=O)CSc2nc3ccsc3c(=O)n2Cc2ccccc2F)cc1 | inactive: -9.84%
Cc1ccc(-n2cc(-c3ccccc3)c3c(N4CCCCC4)ncnc32)cc1 | inactive: -15.7%
CC(C)OC(=O)c1cccc(NC(=O)Cn2nnc3sc4c(c3c2=O)CCCC4)c1 | inactive: -15.7%
Cc1cccc(Nc2nnc(-c3ccc(C)c(S(=O)(=O)N4CCCCC4)c3)c3ccccc23)c1 | inactive: -9.97%
Cc1ccc(NC(=O)C2CCCN(S(=O)(=O)c3ccc4[nH]c(=O)ccc4c3)C2)cc1Cl (stereo not given) | inactive: -24.6%
COc1ccc2c(c1)c1c(c(=O)n(CCc3ccccc3)c(=O)n1Cc1cccc(Cl)c1)n2C | inactive: -8.42%
O=C(NCc1cccc(Cl)c1)c1c2c(nc3ccccc13)C(=O)N(C1CCCCC1)C2 | inactive: -12.2%
CC(=O)Nc1cccc(NC(=O)c2cc3c(=O)n4cccc(C)c4nc3n2C)c1 | inactive: 0.419%
CCCn1cc(S(=O)(=O)c2ccc(C)cc2)c(=O)c2cc(F)c(N3CCCC3)cc21 | inactive: -2.37%
COc1cc(NC(=O)c2ccc(C)c(Cl)c2)ccc1NC(=O)c1cc2ccccc2o1 | inactive: 14.1%
CCOc1ccccc1Nc1ncnc2c1cnn2-c1ccc(C)cc1 | inactive: -32.8%
CC1CN(C(=O)N2CCC(C(=O)NCCCc3ccccc3)CC2)c2cc(Cl)ccc2O1 (stereo not given) | inactive: -31.5%
CCOc1ccccc1Nc1nc2ccccc2c2nncn12 | inactive: -6.52%
COc1cccc2c1cc1c(=O)n(CC(=O)N3CCN(c4cccc(C)c4C)CC3)nc(C)n12 | inactive: -2.71%
